Several values for one entry are separate records, joined by “and”; a condition that tells them apart may be missing. Equal entries are not always repeated. The full ranking holds about 5,300 compounds; the median of “PER2::LUC luminescence relative to vehicle control” is about 0.96, and the highest 2% start at about 1.3. This is one part of the list.
System: mPer2Luc MEF
Assay: PER2::LUC luminescence relative to vehicle control (fold of vehicle); higher = higher PER2::LUC reporter signal
Details: 10 µM
How it was run: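 Mouse embryonic fibroblasts carrying the mPer2Luc reporter were seeded at ~3000 cells per well in 384-well plates, 48 h before compounds from commercial libraries were added at 10 μM. Cells were grown in DMEM with 10% FBS at 37 °C and 5% CO2. Luminescence was read with the ONE-Glo luciferase assay system 24 h and 30 h after treatment, followed by an alamarBlue viability assay. The value is PER2::LUC luminescence as fold of vehicle control.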

In the case of O=c1ccc2cc(O[C@@H]3O[C@H](CO)[C@@H](O)[C@H](O)[C@H]3O)c(O)cc2o1, the “PER2::LUC luminescence” value (time after treatment 24 h) is reported as 0.908 and the “PER2::LUC luminescence” value (time after treatment 30 h) is reported as 0.906.
COc1cc2c3cc1Oc1c(OC)c(OC)cc4c1[C@@H](Cc1cccc(c1)Oc1ccc(c(O)c1)C[C@@H]3N(C)CC2)N(C)CC4 was tested, and the “PER2::LUC luminescence” value (time after treatment 24 h) was 0.505 and the “PER2::LUC luminescence” value (time after treatment 30 h) was 0.563.
CN1CCCCC1Cn1cc(C(=O)c2cc([N+](=O)[O-])ccc2I)c2ccccc21 (stereo unspecified) was tested, and the “PER2::LUC luminescence” value (time after treatment 24 h) was 0.814 and the “PER2::LUC luminescence” value (time after treatment 30 h) was 0.666.
In the case of O=C1c2ccccc2-c2cccc3cccc1c23, the “PER2::LUC luminescence” value (time after treatment 24 h) is reported as 0.822 and the “PER2::LUC luminescence” value (time after treatment 30 h) is reported as 0.749.
NCC(O)c1ccc(O)cc1 (stereo unspecified) was tested, and the “PER2::LUC luminescence” value (time after treatment 24 h) was 0.964 and the “PER2::LUC luminescence” value (time after treatment 30 h) was 0.943.
With COC(=O)N1CCN(C(=O)Cc2ccc(Cl)c(Cl)c2)C(CN2CCCC2)C1 (stereo unspecified) the “PER2::LUC luminescence” value (time after treatment 24 h) was 0.947 and 0.914 and the “PER2::LUC luminescence” value (time after treatment 30 h) was 0.942 and 0.885.
With CNCC/C=C/c1cccnc1 the “PER2::LUC luminescence” value (time after treatment 24 h) was 0.935 and the “PER2::LUC luminescence” value (time after treatment 30 h) was 0.963.
With O=C(O)CCCO the “PER2::LUC luminescence” value (time after treatment 24 h) was 1.02 and the “PER2::LUC luminescence” value (time after treatment 30 h) was 1.
With NCc1cccnc1 the “PER2::LUC luminescence” value (time after treatment 24 h) was 1.12 and the “PER2::LUC luminescence” value (time after treatment 30 h) was 1.01.
In the case of C=C/C=C\CC1=C(C)[C@@H](OC(=O)[C@@H]2[C@@H](/C=C(\C)C(=O)OC)C2(C)C)CC1=O.C=C/C=C\CC1=C(C)[C@@H](OC(=O)[C@@H]2[C@@H](C=C(C)C)C2(C)C)CC1=O, the “PER2::LUC luminescence” value (time after treatment 24 h) is reported as 1.06 and the “PER2::LUC luminescence” value (time after treatment 30 h) is reported as 0.939.
With N[C@]1(C(=O)O)CC[C@H](C(=O)O)C1 (racemic) the “PER2::LUC luminescence” value (time after treatment 24 h) was 1.01 and the “PER2::LUC luminescence” value (time after treatment 30 h) was 0.888.
With CC(NC(C)(C)C)C(=O)c1cccc(Cl)c1 (stereo unspecified) the “PER2::LUC luminescence” value (time after treatment 24 h) was 0.974 and 0.931 and 0.592 and the “PER2::LUC luminescence” value (time after treatment 30 h) was 0.991 and 0.866 and 0.879.
Oc1ccc2c3c1O[C@H]1c4[nH]c5ccccc5c4C[C@@]4(O)[C@@H](C2)N(CC2CC2)CC[C@]314 was tested, and the “PER2::LUC luminescence” value (time after treatment 24 h) was 0.774 and 0.426 and the “PER2::LUC luminescence” value (time after treatment 30 h) was 0.762 and 0.53.
CN1CCC2=C(C1)c1ccccc1Cc1ccccc12 was tested, and the “PER2::LUC luminescence” value (time after treatment 24 h) was 0.931 and the “PER2::LUC luminescence” value (time after treatment 30 h) was 0.88.
With Cc1cc(C)cc(C(=O)OC2C[C@H]3CC[C@@H](C2)N3C)c1 (stereo partly specified) the “PER2::LUC luminescence” value (time after treatment 24 h) was 0.722 and the “PER2::LUC luminescence” value (time after treatment 30 h) was 0.783.
In the case of NCC(CC(=O)O)c1ccc(Cl)cc1 (stereo unspecified), the “PER2::LUC luminescence” value (time after treatment 24 h) is reported as 1.01 and the “PER2::LUC luminescence” value (time after treatment 30 h) is reported as 0.772.
CC(=O)O[C@H]1CC[C@H]2[C@@H]3CCC4=CC(=O)CCC4=C3C=C[C@]12C was tested, and the “PER2::LUC luminescence” value (time after treatment 24 h) was 0.987 and the “PER2::LUC luminescence” value (time after treatment 30 h) was 0.941.
In the case of CN1CC[C@@]2(C)c3cc(O)ccc3N(C)C12 (single isomer, unassigned; (-)), the “PER2::LUC luminescence” value (time after treatment 24 h) is reported as 1 and the “PER2::LUC luminescence” value (time after treatment 30 h) is reported as 0.964.
With CC(C)[C@]12O[C@H]1[C@@H]1O[C@]13[C@]1(O[C@H]1C[C@H]1C4=C(CC[C@@]13C)C(=O)OC4)[C@@H]2O the “PER2::LUC luminescence” value (time after treatment 24 h) was 0.308 and the “PER2::LUC luminescence” value (time after treatment 30 h) was 0.44.
CCOC(=O)CC(SP(=S)(OC)OC)C(=O)OCC (stereo unspecified) was tested, and the “PER2::LUC luminescence” value (time after treatment 24 h) was 0.996 and the “PER2::LUC luminescence” value (time after treatment 30 h) was 1.19.
For CC(=O)[C@H]1CC[C@H]2[C@@H]3CC[C@H]4C[C@H](O)CC[C@]4(C)[C@H]3CC[C@]12C, the “PER2::LUC luminescence” value (time after treatment 24 h) was 0.995 and 0.868 and 0.864 and the “PER2::LUC luminescence” value (time after treatment 30 h) was 1.07 and 1.05 and 0.983.
For CC(C)(C)c1cc(C=C(C#N)C#N)cc(Br)c1O, the “PER2::LUC luminescence” value (time after treatment 24 h) was 0.972 and the “PER2::LUC luminescence” value (time after treatment 30 h) was 0.857.
In the case of C=CCSSCC=C, the “PER2::LUC luminescence” value (time after treatment 24 h) is reported as 1.03 and the “PER2::LUC luminescence” value (time after treatment 30 h) is reported as 0.94.
For NC[C@H](CC(=O)O)c1ccc(Cl)cc1, the “PER2::LUC luminescence” value (time after treatment 24 h) was 1.06 and the “PER2::LUC luminescence” value (time after treatment 30 h) was 0.999.
CCN1C[C@]2(C)CC[C@H](O)[C@]34C1[C@@H](C[C@H]23)[C@@]1(O)C[C@H](OC)[C@H]2C[C@@H]4[C@@H]1[C@H]2O was tested, and the “PER2::LUC luminescence” value (time after treatment 24 h) was 0.852 and the “PER2::LUC luminescence” value (time after treatment 30 h) was 1.11.
In the case of CC(N)Cc1ccc(O)cc1 (stereo unspecified), the “PER2::LUC luminescence” value (time after treatment 24 h) is reported as 0.959 and the “PER2::LUC luminescence” value (time after treatment 30 h) is reported as 0.914.
For CN1CCN(C(=O)O[C@H]2c3nccnc3C(=O)N2c2ccc(Cl)cn2)CC1, the “PER2::LUC luminescence” value (time after treatment 24 h) was 1.03 and the “PER2::LUC luminescence” value (time after treatment 30 h) was 0.937.
In the case of Clc1cncc(N2CCNCC2)n1, the “PER2::LUC luminescence” value (time after treatment 24 h) is reported as 0.836 and the “PER2::LUC luminescence” value (time after treatment 30 h) is reported as 0.917.
For O=C1Nc2ccc(Cl)cc2C(c2ccccc2Cl)=NC1O (stereo unspecified), the “PER2::LUC luminescence” value (time after treatment 24 h) was 0.955 and the “PER2::LUC luminescence” value (time after treatment 30 h) was 0.928.
CC(=O)O[C@H]1[C@H]2[C@@H](OC(=O)Cc3ccccc3)[C@@H](C)C[C@]2(OC(C)=O)C(=O)/C(C)=C/[C@@H]2[C@H](CC[C@@]13CO3)C2(C)C was tested, and the “PER2::LUC luminescence” value (time after treatment 24 h) was 0.946 and the “PER2::LUC luminescence” value (time after treatment 30 h) was 0.917.
CC1=C2C(=O)[C@H]3[C@@H](CC=C4C[C@@H](O)CC[C@@]43C)[C@@H]2CC[C@]12O[C@@H]1C[C@H](C)CN[C@H]1[C@H]2C was tested, and the “PER2::LUC luminescence” value (time after treatment 24 h) was 0.994 and the “PER2::LUC luminescence” value (time after treatment 30 h) was 0.882.
In the case of O=C1CC[C@@]2(O)[C@H]3Cc4ccc(O)c5c4[C@@]2(CCN3CC2CC2)[C@H]1O5, the “PER2::LUC luminescence” value (time after treatment 24 h) is reported as 0.976 and 0.48 and the “PER2::LUC luminescence” value (time after treatment 30 h) is reported as 1.07 and 0.919.
For c1ccc2sc(C3(N4CCCC4)CCCCC3)cc2c1, the “PER2::LUC luminescence” value (time after treatment 24 h) was 0.894 and the “PER2::LUC luminescence” value (time after treatment 30 h) was 0.807.
With NC(=O)c1cc([N+](=O)[O-])cc([N+](=O)[O-])c1 the “PER2::LUC luminescence” value (time after treatment 24 h) was 1.01 and the “PER2::LUC luminescence” value (time after treatment 30 h) was 1.18.
In the case of COc1ccc2c(c1O)-c1c(OC)c(OC)cc3c1[C@H](C2)N(C)CC3, the “PER2::LUC luminescence” value (time after treatment 24 h) is reported as 0.916 and 1.01 and the “PER2::LUC luminescence” value (time after treatment 30 h) is reported as 0.928 and 1.24.
With Cn1c(CCCC(=O)O)nc2cc(N(CCCl)CCCl)ccc21 the “PER2::LUC luminescence” value (time after treatment 24 h) was 1.19 and the “PER2::LUC luminescence” value (time after treatment 30 h) was 1.11.
With CN1C(=O)[C@]2(Cc3cn([C@]45C[C@@]67SS[C@@](CO)(C(=O)N6[C@H]4Nc4ccccc45)N(C)C7=O)c4ccccc34)SS[C@@]1(CO)C(=O)N2C the “PER2::LUC luminescence” value (time after treatment 24 h) was 1.04 and the “PER2::LUC luminescence” value (time after treatment 30 h) was 0.992.
With CN[C@@H]1[C@@H](O)[C@@H](O[C@@H]2[C@@H](O)[C@H](O[C@H]3O[C@H](CN)CC[C@H]3N)[C@@H](N)C[C@H]2N)OC[C@]1(C)O.CN[C@@H]1[C@@H](O)[C@@H](O[C@@H]2[C@@H](O)[C@H](O[C@H]3O[C@H]([C@@H](C)N)CC[C@H]3N)[C@@H](N)C[C@H]2N)OC[C@]1(C)O.CN[C@@H]1[C@@H](O)[C@@H](O[C@@H]2[C@@H](O)[C@H](O[C@H]3O[C@H]([C@@H](C)NC)CC[C@H]3N)[C@@H](N)C[C@H]2N)OC[C@]1(C)O the “PER2::LUC luminescence” value (time after treatment 24 h) was 0.78 and the “PER2::LUC luminescence” value (time after treatment 30 h) was 1.04.
C[C@@H]1Cc2c(Cl)cc(C(=O)N[C@@H](Cc3ccccc3)C(=O)O)c(O)c2C(=O)O1 was tested, and the “PER2::LUC luminescence” value (time after treatment 24 h) was 1.1 and the “PER2::LUC luminescence” value (time after treatment 30 h) was 1.05.
In the case of CN1C[C@H](C(=O)N[C@]2(C)O[C@@]3(O)[C@@H]4CCCN4C(=O)[C@H](Cc4ccccc4)N3C2=O)C=C2c3cccc4[nH]cc(c34)C[C@H]21, the “PER2::LUC luminescence” value (time after treatment 24 h) is reported as 0.714 and the “PER2::LUC luminescence” value (time after treatment 30 h) is reported as 0.724.
In the case of C[C@@H](NC(=O)[C@@H](N)Cc1ccc(O)cc1)C(=O)NCC(=O)N(C)[C@@H](Cc1ccccc1)C(=O)N[C@H](CO)CC[S+](C)[O-] (stereo partly specified), the “PER2::LUC luminescence” value (time after treatment 24 h) is reported as 1.08 and the “PER2::LUC luminescence” value (time after treatment 30 h) is reported as 0.941.
With CNc1ccccc1C(=O)O the “PER2::LUC luminescence” value (time after treatment 24 h) was 1.03 and the “PER2::LUC luminescence” value (time after treatment 30 h) was 0.938.
In the case of COc1cc(C(=O)OC2CC3CCC(C2)N3C)ccc1O (stereo unspecified), the “PER2::LUC luminescence” value (time after treatment 24 h) is reported as 0.926 and the “PER2::LUC luminescence” value (time after treatment 30 h) is reported as 0.902.
With CCCN(CCC)[C@@H]1CCc2c(F)ccc(O)c2C1 the “PER2::LUC luminescence” value (time after treatment 24 h) was 1.05 and the “PER2::LUC luminescence” value (time after treatment 30 h) was 0.925.
NCC(CC(=O)O)c1ccc(Cl)cc1 (racemic) was tested, and the “PER2::LUC luminescence” value (time after treatment 24 h) was 1.04 and the “PER2::LUC luminescence” value (time after treatment 30 h) was 0.924.
With N[C@@H]1C[C@H]1c1ccccc1 the “PER2::LUC luminescence” value (time after treatment 24 h) was 0.986 and 1.14 and the “PER2::LUC luminescence” value (time after treatment 30 h) was 1 and 1.05.
With Cc1sc2c(c1C)C(c1ccc(Cl)cc1)=N[C@@H](CC(N)=O)c1nnc(C)n1-2 the “PER2::LUC luminescence” value (time after treatment 24 h) was 0.111 and the “PER2::LUC luminescence” value (time after treatment 30 h) was 0.121.
CCC(C)C(=O)O[C@@H]1C[C@@]2(C)[C@H](c3ccoc3)OC(=O)CC23OC2(C)O[C@]14[C@]1(C)[C@@H](CC(=O)OC)C5(C)CC1(O)[C@](O)(C5OC(=O)C1(C)OC1C)[C@@H](OC(C)=O)[C@]34O2 (stereo partly specified) was tested, and the “PER2::LUC luminescence” value (time after treatment 24 h) was 0.877 and the “PER2::LUC luminescence” value (time after treatment 30 h) was 0.706.
